Test results: the supplement of paper PMC12217912
This is one part of the list. Sequences were assembled here from the parent chain. Inactive controls read about 0.05.

B1: TEV protease; numbered along this chain (parent)
chain: MGESLFKGPRDYNPISSSICHLTNESDGHTTSLYGIGFGPFIITNKHLFRRNNGTLVVQSLHGVFKVKDTTTLQQHLVDGRDMIIIRMPKDFPPFPQKLKFREPQREERICLVTTNFQTKSMSSMVSDTSCTFPSGDGIFWKHWIQTKDGQCGSPLVSTRDGFIVGIHSASNFTNTNNYFTSVPKNFMELLTNQEAQQWVSGWRLNADSVLWGGHKVFMVKPEEPFQPVKEATQL

Variants of: B1
Assay: raw area under fraction-flipped curve 0-4 h after induction (AUC4h, not background-subtracted), DNA-recorder readout of cleavage of the substrate (dimensionless); higher = more cleavage of the substrate by the protease variant
Conditions: temperature: 34 °C; time window: 0-4 h after rhamnose induction
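Also: Bxb1 expression induced with 0.2% (w/v) L-rhamnose at OD600 near 0.5, cultures sampled hourly, flipped fraction per protease–substrate barcode pair counted by paired-end Illumina sequencing.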

Variant	area with substrate ENLDFQS	area with substrate ENLGFQS	area with substrate ENLHFQS	area with substrate ENLLFQS	area with substrate ENLNFQS	area with substrate ENLPFQS	area with substrate ENLRFQS	area with substrate ENLWFQS	area with substrate ENLFFQS	area with substrate ENLIFQS	area with substrate ENLKFQS	area with substrate ENLQFQS	area with substrate ENLVFQS	area with substrate ENLEFQS	area with substrate ENLMFQS	area with substrate ENLSFQS	area with substrate ENLTFQS
V64Q	0.0717	0.0698	0.0756	0.0803	0.0688	0.067	0.0636	0.0735									
V64T	0.0597						0.0796		0.0986	0.0919	0.0499	0.0437	0.0844				
N24H		0.0809			0.071	0.0578	0.0732	0.068	0.0693	0.0766	0.0677		0.0904	0.0576	0.0567	0.0686	
Q197W	0.0578	0.0794	0.0608	0.0544	0.0635	0.062	0.0877		0.0945		0.0696			0.0654	0.062	0.0439	
D208Q	0.0582	0.0707	0.0406		0.0628	0.069		0.0555	0.0739		0.0303	0.0575		0.0633		0.0349	
D208N	0.0725		0.0539	0.0868	0.065	0.0608	0.059		0.0641		0.0837	0.0673		0.0608			
P96L	0.0617	0.0467			0.065	0.0491		0.073	0.0913	0.0893	0.068			0.0653		0.0616	
P184H	0.0621		0.0301	0.0545		0.0586	0.0563		0.0658		0.0614		0.0592	0.0597			
I19R	0.0581		0.0594	0.0456	0.0585	0.0511	0.0529	0.037	0.0578	0.0509	0.0516		0.0489	0.0561	0.0649	0.0589	0.0397
M88H				0.0586			0.0702	0.0443		0.0568		0.0304					
M88C		0.0574	0.0871			0.0618		0.0552	0.0701			0.0924					0.0576
S32I	0.0651	0.0494	0.0733		0.0625	0.0869	0.0729		0.0736	0.0764	0.0705	0.0583		0.0308		0.0455	
L56I	0.042				0.0663		0.0801		0.0924			0.0629		0.0688		0.0684	
L56C	0.0446	0.0562	0.051	0.0502	0.0497	0.0761	0.0635		0.0914	0.0803	0.0721	0.0629		0.065		0.0696	0.0617
T44F	0.0508	0.048	0.0585	0.0582	0.0423	0.0481	0.0238	0.0531	0.0619		0.0828	0.053	0.0583	0.0403		0.0613	
P40C	0.063	0.0665	0.08		0.0512	0.063	0.0719		0.0859	0.0866	0.0807		0.106	0.0697			
G80T		0.0526	0.0482	0.0666	0.0619	0.0636	0.0632	0.0527	0.0767		0.077	0.0597	0.0826	0.0566	0.0622	0.0525	
H168G			0.0641		0.0694			0.0704	0.0104				0.0638			0.0727	
H168A	0.0689						0.078							0.0736	0.066		
G8F		0.0561		0.0583	0.0618	0.0545			0.169	0.0787	0.0898	0.0755	0.0835				

Variant	area with substrate ENLDFQS	area with substrate ENLGFQS	area with substrate ENLHFQS	area with substrate ENLLFQS	area with substrate ENLNFQS	area with substrate ENLPFQS	area with substrate ENLRFQS	area with substrate ENLWFQS	area with substrate ENLFFQS	area with substrate ENLIFQS	area with substrate ENLKFQS	area with substrate ENLQFQS	area with substrate ENLVFQS	area with substrate ENLEFQS	area with substrate ENLMFQS	area with substrate ENLSFQS	area with substrate ENLTFQS
G8A	0.0446								0.0821		0.0915			0.0593			
L48E	0.0667	0.0615	0.0576	0.0753	0.0653	0.0581		0.0789	0.0873	0.0707	0.0593	0.0487				0.0478	
D128A	0.0706	0.0781		0.0887	0.0578	0.0536	0.0779	0.0925	0.0986	0.0981	0.106			0.159	0.0821		0.0606
D128I	0.0582					0.0638		0.0851			0.0917			0.0659			
D128M		0.0774	0.0847	0.159	0.0633	0.0596	0.109	0.082	0.117	0.144	0.121	0.1	0.16	0.0659	0.126	0.0925	
T176V				0.0585		0.0659	0.0581			0.121	0.0563			0.0716			
T176F					0.0789				0.0682	0.0644			0.0543		0.0671	0.0617	
T176R	0.072		0.0522		0.0669				0.0635		0.0745	0.0673			0.0629	0.0552	0.0655
L112F	0.0496		0.0655	0.0806	0.0615		0.0784	0.056	0.074		0.101			0.0734	0.0744	0.0554	
W144N	0.0694	0.0663	0.0638	0.0602	0.0776	0.0645	0.0737		0.0714	0.0663	0.0688			0.0735	0.0666	0.0492	
A232K			0.0548		0.0478	0.0612	0.0762		0.119		0.083	0.0869			0.0758	0.0474	
A232F	0.0557		0.0664	0.0393	0.0654		0.0722		0.0751		0.0732	0.0555	0.0738			0.0638	
V200I	0.0654					0.0475					0.0708			0.0629		0.0868	
V200W	0.0754		0.0552								0.0646				0.0542		
V200A							0.077		0.0591								
V200S										0.065							
T192W											0.103						
T192V	0.0525				0.0576		0.0665		0.0831	0.0869	0.0826	0.0774	0.117	0.0441	0.0938		
S16E	0.0617		0.0705	0.0688	0.0676	0.0647	0.0716	0.0709	0.07	0.0829	0.059	0.0821				0.0618	
S16G	0.0689		0.0779		0.0664			0.0598	0.0811		0.0887		0.0814	0.0281	0.0642	0.0583	
